Results reported in publication PMC3983190, “Chemical Derivatives of a Small Molecule Deubiquitinase Inhibitor Have Antiviral Activity against Several RNA Viruses” (PLoS ONE, 2014).

Test system: rhinovirus (RV39)
Assay: Rhinovirus infection

CCC[C@H](NC(=O)/C(C#N)=C/c1cccc(Br)n1)c1ccccc1 [WP1130, reference compound]
inhibition of rhinovirus (RV39) infection: not inhibited
